Data on 45 compounds can be found in PMC4336329 (PLoS ONE, 2015).

Screen size: about 310,000 compounds; about 14,000 (4.5%) showed an effect of 50% or more. Effects have a minus sign here. Some of the results follow.
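Also: peak tail current of the secondary pulse compared with the same well before compound.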

human ether-à-go-go-related gene (hERG) potassium channel, sequence (Q12809 whole entry, looked up): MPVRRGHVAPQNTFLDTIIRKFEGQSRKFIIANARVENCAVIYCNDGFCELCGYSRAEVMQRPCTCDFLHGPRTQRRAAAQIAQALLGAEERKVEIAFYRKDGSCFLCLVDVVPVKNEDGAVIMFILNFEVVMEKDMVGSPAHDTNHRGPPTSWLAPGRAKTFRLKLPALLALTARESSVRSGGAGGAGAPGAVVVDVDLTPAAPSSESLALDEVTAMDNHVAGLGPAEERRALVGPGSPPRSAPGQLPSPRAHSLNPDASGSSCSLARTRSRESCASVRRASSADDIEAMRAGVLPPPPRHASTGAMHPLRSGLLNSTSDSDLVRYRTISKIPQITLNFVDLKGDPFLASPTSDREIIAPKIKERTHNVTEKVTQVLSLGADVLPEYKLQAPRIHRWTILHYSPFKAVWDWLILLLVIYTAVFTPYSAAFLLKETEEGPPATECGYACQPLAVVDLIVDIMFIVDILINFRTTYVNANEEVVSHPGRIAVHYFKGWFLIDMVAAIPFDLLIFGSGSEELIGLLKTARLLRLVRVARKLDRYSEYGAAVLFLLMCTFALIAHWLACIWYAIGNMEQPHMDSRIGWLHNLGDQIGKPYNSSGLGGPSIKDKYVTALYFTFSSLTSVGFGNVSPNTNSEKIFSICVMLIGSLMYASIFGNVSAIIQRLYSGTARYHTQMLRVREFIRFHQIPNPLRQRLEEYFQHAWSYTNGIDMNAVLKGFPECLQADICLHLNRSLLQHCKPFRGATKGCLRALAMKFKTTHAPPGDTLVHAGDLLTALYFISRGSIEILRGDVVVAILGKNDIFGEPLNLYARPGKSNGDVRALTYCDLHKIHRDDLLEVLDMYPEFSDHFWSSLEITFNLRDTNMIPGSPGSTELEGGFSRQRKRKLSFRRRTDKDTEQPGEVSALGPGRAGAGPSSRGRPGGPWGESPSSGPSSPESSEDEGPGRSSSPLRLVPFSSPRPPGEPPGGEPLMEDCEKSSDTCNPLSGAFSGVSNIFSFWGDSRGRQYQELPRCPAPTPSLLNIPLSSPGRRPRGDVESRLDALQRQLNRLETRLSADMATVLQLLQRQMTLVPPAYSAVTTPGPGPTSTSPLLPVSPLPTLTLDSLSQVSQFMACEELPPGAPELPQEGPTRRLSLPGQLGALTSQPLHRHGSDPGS

The experiment has as its target human ether-à-go-go-related gene (hERG) potassium channel (human, UniProt Q12809). Briefly: primary screen, population patch clamp on CHO cells stably expressing hERG.
As for `O=S(=O)(c1ccccc1)c1cnn2c(C(F)(F)F)cc(-c3ccccc3)nc12`, the “hERG current change (%, negative = inhibition) at 10uM” value is reported as -8.9%.

As to `CCOC(=O)N1CCN(C(=O)c2ccc(CS(=O)(=O)c3ccc(OC)cc3)o2)CC1`, the “hERG current change (%, negative = inhibition) at 10uM” value is recorded as -16%.

Regarding `O=C(Nc1ccc(Cl)cc1Cl)c1ccc(-c2ccccc2)cc1`, the “hERG current change (%, negative = inhibition) at 10uM” value is 14.4%.

For `Cc1cccc(CC(C)NC(=O)CCc2nnc(-c3ccccc3)o2)n1` (stereo not drawn), the “hERG current change (%, negative = inhibition) at 10uM” value worked out at 0.407%.

Take `COc1ccc(OC)c(NC(=O)CSc2nnc(C3CCCCC3)o2)c1`: the “hERG current change (%, negative = inhibition) at 10uM” value is -19%.

In the case of `CCOC(=O)N1CCN(C(=S)NC2CCCCC2)CC1`, the “hERG current change (%, negative = inhibition) at 10uM” value is listed as -14.4%.

With `FC(F)(F)c1cccc(NC(=S)NNC(=S)NCc2ccccc2)c1`, the “hERG current change (%, negative = inhibition) at 10uM” value turned out to be 19.3%.

As for `CCn1cc(C(=O)OCc2ccccc2)c(=O)c2ccc(C)nc21`, the “hERG current change (%, negative = inhibition) at 10uM” value is on record as -16.8%.

Turning to `Cc1ccc(C(=O)c2cc([N+](=O)[O-])ccc2N2CC(C)OC(C)C2)cc1` (stereo not drawn), the “hERG current change (%, negative = inhibition) at 10uM” value is reported as -0.127%.

In the case of `O=C(CN(C(=O)CNC(=O)c1ccco1)c1ccccc1F)NC1CCCCC1`, the “hERG current change (%, negative = inhibition) at 10uM” value is recorded as 11.2%.

Take `CCOC(=O)N1CCN(C(=O)/C(=C/c2ccc(Br)cc2)NC(=O)c2ccc(OC)cc2)CC1`: the “hERG current change (%, negative = inhibition) at 10uM” value is reported as -78.2%.

In the case of `COc1cccc(Cn2nnc(C(=O)Nc3ccc(C)cc3)c2N)c1`, the “hERG current change (%, negative = inhibition) at 10uM” value is listed as 17.9%.

`Cc1ccccc1-c1nc2cc(N)ccc2o1`: the “hERG current change (%, negative = inhibition) at 10uM” value is -15.6%.

Take `CCOc1ccccc1CN1CCN(Cc2nc3c(s2)CCCC3)CC1CCO` (stereo not drawn): the “hERG current change (%, negative = inhibition) at 10uM” value was -67.9%.

For the compound `Cc1ccccc1C(=O)N1CCN(c2ccc(NC(=O)c3ccccc3[N+](=O)[O-])cc2)CC1`, the “hERG current change (%, negative = inhibition) at 10uM” value came to 0.716%.

As for `CCOC(=O)N1CCN(C(=O)c2cccc(OC)c2O)CC1`, the “hERG current change (%, negative = inhibition) at 10uM” value was -4.53%.

Consider `CN(c1ccc(C(=O)Nc2cccnc2)cc1)S(=O)(=O)c1ccccc1`, for which the “hERG current change (%, negative = inhibition) at 10uM” value was -14.9%.

On to `O=C(CN1CCOCC1)Nc1ccc2c(c1)CCC2`, for which the “hERG current change (%, negative = inhibition) at 10uM” value is 8.21%.

Consider `CN1CCN(CCCNC(=O)CCN2C(=O)COc3ccccc32)CC1`, for which the “hERG current change (%, negative = inhibition) at 10uM” value came out at 0.334%.

Regarding `C[C@H](NC(=O)c1nc[nH]c1C(=O)NCCCCCNC(=O)OC(C)(C)C)c1ccccc1`, the “hERG current change (%, negative = inhibition) at 10uM” value is listed as -22.3%.

As to `CCOc1ccc(/C=N/NC(=O)c2nnn(-c3nonc3N)c2-c2ccc(OCC)cc2)cc1`, the “hERG current change (%, negative = inhibition) at 10uM” value is 8.86%.

As for `CSc1cccc(NC(=O)CSc2ccccc2)c1`, the “hERG current change (%, negative = inhibition) at 10uM” value was found to be 2.1%.

As for `COC(=O)Cc1c(C)c2ccc(OC(=O)c3ccco3)cc2oc1=O`, the “hERG current change (%, negative = inhibition) at 10uM” value worked out at 8.37%.

With `Cc1cc(-c2nnco2)c(C)n1-c1ccc(F)cc1`, the “hERG current change (%, negative = inhibition) at 10uM” value was 1.81%.

Consider `CCOc1cc(/C=N/NC(=O)COc2cccc(C)c2)ccc1OC(=O)c1cccs1`, for which the “hERG current change (%, negative = inhibition) at 10uM” value was -0.972%.

`COc1cccc(C2c3c(-c4ccccc4)n[nH]c3C(=O)N2c2ccc(C(=O)O)cc2)c1` (stereo not drawn): the “hERG current change (%, negative = inhibition) at 10uM” value is 10.6%.

As for `Cc1cc(NC(=O)CSc2ncn[nH]2)no1`, the “hERG current change (%, negative = inhibition) at 10uM” value is listed as -3.9%.

As to `CCn1c(=O)cc(SCC(=O)NCc2ccc(C)cc2)c2ccccc21`, the “hERG current change (%, negative = inhibition) at 10uM” value is 4.39%.

With `CC1(C)Cc2cccc(OCC(=O)OCC(=O)NCc3ccccc3)c2O1`, the “hERG current change (%, negative = inhibition) at 10uM” value is -0.697%.

On to `COc1ccc(-c2nnc(N(C)C(=O)c3ccno3)s2)cc1`, for which the “hERG current change (%, negative = inhibition) at 10uM” value worked out at 9.59%.

As for `COc1ccc(CCN2C(=O)N(c3ccc(OC)cc3)C(=O)C2CC(=O)Nc2ccc(OC)cc2)cc1` (stereo not drawn), the “hERG current change (%, negative = inhibition) at 10uM” value amounted to 7.46%.

In the case of `CC(C)C(NC(=O)c1ccccc1)C(=O)OCn1nnc2ccccc2c1=O` (stereo not drawn), the “hERG current change (%, negative = inhibition) at 10uM” value is given as -8.61%.

Regarding `COCCNC(=O)c1c(N)n(CCC2=CCCCC2)c2nc3ccccc3nc12`, the “hERG current change (%, negative = inhibition) at 10uM” value is 8.15%.

In the case of `O=C1c2cccc3c2N(CCC3)C(=O)C1(F)c1ccccc1` (stereo not drawn), the “hERG current change (%, negative = inhibition) at 10uM” value is given as -4.52%.

As for `CC(=O)Nc1ccc(/C=C/c2noc(-c3ccccc3O)n2)cc1`, the “hERG current change (%, negative = inhibition) at 10uM” value is listed as 24.9%.

Regarding `CC(C(=O)N1CCCc2ccccc21)N1CCN(c2ccccn2)CC1` (stereo not drawn), the “hERG current change (%, negative = inhibition) at 10uM” value is 11%.

Turning to `O=C(CSc1ccc(Cl)cc1)N1CCN(c2ncc(C(F)(F)F)cc2Cl)CC1`, the “hERG current change (%, negative = inhibition) at 10uM” value was -26%.

Regarding `CC(C)[C@H]1C(=O)Nc2ccccc2N1C(=O)N[C@@H](Cc1ccccc1)C(=O)N[C@@H](C(=O)O)c1ccccc1`, the “hERG current change (%, negative = inhibition) at 10uM” value is 4.02%.

Consider `COc1cc(OC)cc(C(=O)NCCOc2ccccc2)c1`, for which the “hERG current change (%, negative = inhibition) at 10uM” value is listed as -17.6%.

As for `COc1ccc(S(=O)(=O)N2c3ccccc3OCC2c2ccccc2)cc1` (stereo not drawn), the “hERG current change (%, negative = inhibition) at 10uM” value is on record as 6.69%.

Take `O=C(Nc1ccccc1N1CCCC1)c1ccc2c(c1)OCO2`: the “hERG current change (%, negative = inhibition) at 10uM” value was -3.23%.

Consider `COc1cc(O)c(C(CC(=O)N2CCCC2)c2cc(OC)c(OC)c(OC)c2)c(OC)c1` (stereo not drawn), for which the “hERG current change (%, negative = inhibition) at 10uM” value is given as 18%.

`CC(C)CCNC(=O)C1CCC(CNS(=O)(=O)c2cccc3nsnc23)CC1` (stereo not drawn): the “hERG current change (%, negative = inhibition) at 10uM” value is reported as -0.113%.

Take `CC(C)(C)n1cnnc1Sc1ncccc1[N+](=O)[O-]`: the “hERG current change (%, negative = inhibition) at 10uM” value was 13.3%.

On to `O=C(COc1ccc(Cl)cc1)NNC(=O)c1cccnc1`, for which the “hERG current change (%, negative = inhibition) at 10uM” value turned out to be 3.87%.
